Measured values as given in the RNAGym collection of RNA variant scans (doi:10.1073/pnas.2313332121).
This sample is rich in variants without activity.

B1: TPR 5TU (parent)
chain: GGAUCUUCUCGAUCUAACAAAAAAGACAAAUCUGCCACAAAGCUUGAGAGCAUCUUCGGAUGCAGAGGCGGCAGCCUUCGGUGGCGCGAUAGCGCCAACGUUCUCAACUAUGACACGCAAAACGCGUGCUCCGUUGAAUGGAGUUUAUCAUG

Variants of: B1
Assay: polymerase ribozyme fitness, log enrichment relative to wild type (log ratio); higher = more active; in vitro selection for triplet polymerase activity
Procedure, shortened: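 After PCR construction and transcription, each subunit's mutant library from a heterodimeric triplet polymerase ribozyme was annealed with a biotinylated primer, the partner subunit and triplets. Incubation was frozen, at −7 °C, and extended constructs were gel-excised, bound to streptavidin beads and amplified by RT-PCR, in one selection round done in triplicate. Fitness is the logarithm of a genotype's enrichment divided by that of the wild type, from inverse-variance-weighted replicate averages of Illumina-sequenced inputs and outputs. The base of the logarithm is 2, and genotypes needed ≥10 input reads and ≥1 read per output.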

Polymerase ribozyme fitness (log ratio), ≤ -4.2:
GGAUCUUCUCGAUCUAACAAAAAAGACAAAUCUGCCACAAAGCUUGAGAGCAUCUUCGGAUGCAGAGGCGGCAGCUUUCGGUGGGGCGAUAGCGCCAACGUUCUCAACUAUGACACGCAAAACGCGUGCUCCGUUGAAUGGAGUUUAUCAAG
GGAUCUUCUCGAUCUAACAAAAAAGACAAAUCUGCCACAAAGCUUGAGAGCAUCUUCGGAUGCAGAGGCGGCAGCUUUCGGUGGCGCGAUAGGGCCAACGUUCUCAACUAUGACACGCAAAACGCGUGCUCCGUUGAAUGCAGUUUAUCAUG
GGAUCUUCUCGAUCUAACAAAAAAGACAAAUCUGCCACAAAGCUUGAGAGCAUCUUCGGAUGCAGAGGCGGCAGCUUUCGGUGGCGCGAUAGCGCAAACGUUCUCAACUAUGACACGCAAAACGCGUGCUCCGUUGAAGGGUCUUUAUCACG
GGAUCUUCUCGAUCUAACAAAAAAGACAAAUCUGCCACAAAGCUUGAGAGCAUCUUCGGAUGCAGAGGCGGCAGCUUUCGGUGGCGCGAUAGCGCCAACGUUCCCAACGAUGACACGGAAAACGCGUGCUCCGUUGAAUGCAGUUUAUCAUG
GGAUCUUCUCGAUCUAACAAAAAAGACAAAUCUGCCACAAAGCUUGAGAGCAUCUUCGGAUGCAGAGGCGGCAGCCAUCGGUGGUGCGAUAGCGCCAACGUUCUCAACUAUGACACGCAAAACGCGUGCUCCGUUGAAUGGAGUUGAUCAUG
GGAUCUUCUCGAUCUAACAAAAAAGACAAAUCUGCCACAAAGCUUGAGAGCAUCUUCGGAUGCAGAGGCGGCAGCCAUCGGUGGCGCGAUAGCGCAAACGUUCUCAACUAUGACACGCAAAACGCGUGCUCCGUUGUAUGGAGUUUAUCAUG
GGAUCUUCUCGAUCUAACAAAAAAGACAAAUCUGCCACAAAGCUUGAGAGCAUCUUCGGAUGCAGAGGCGGCAGCCAUCGGCGGCGCGAUAGCGCCAACGUUCUCAACUAUGACACGCAAAACGCGUGCUCCGUUGAAUGCAGUUUAUCAUG
GGAUCUUCUCGAUCUAACAAAAAAGACAAAUCUGCCACAAAGCUUGAGAGCAUCUUCGGAUGCAGAGGCGGCAGCCCUCGGUGGCGCGAUUGCGCCAACGUUCUCAACUAUGACACGCAAAACGCGUGCUCCGUUGAAUGGCGUUUAUCAUG
GGAUCUUCUCGAUCUAACAAAAAAGACAAAUCUGCCACAAAGCUUGAGAGCAUCUUCGGAUGCAGAGGCGGCAGCCCUCGGUGGCGCGAUAGCGCCGACGUUCUCAACUAUGACACGCAAGACGCGUGCUCCGUUGAAUGGAGUUUAUCAUG
GGAUCUUCUCGAUCUAACAAAAAAGACAAAUCUGCCACAAAGCUUGAGAGCAUCUUCGGAUGCAGAGGCGGCAGCCCUGGGAGGCACGAUAGCGCCAACGUUCUCAACUAUGACACGCAAAACGCGUGCUCCGUUGAAUGGAGUAUAUCAUG
GGAUCUUCUCGAUCUAACAAAAAAGACAAAUCUGCCACAAAGCUUGAGAGCAUCUUCGGAUGCAGAGGCGGCAGCCCUCGGUGGUGCGAUAGCGUCAACGUUCUCAACGAGGACACGGAAAACGCGUGCUCCGUUGAAAGGAGUUUAUCCUG
GGAUCUUCUCGAUCUAACAAAAAAGACAAAUCUGCCACAAAGCUUGAGAGCAUCUUCGGAUGCAGAGGCGGCAGCCCUCGGUGGCGGGAUAGGGCCAACGUUCUCAACUAUGACACGCAAAACGCGUGCUCCGUUGAAUGGAGUUUAUCAUG
GGAUCUUCUCGAUCUAACAAAAAAGACAAAUCUGCCACAAAGCUUGAGAGCAUCUUCGGAUGCAGAGGCGGCAGCCCUCGGUGGCGCGAUAGCGGAAACGUUCUCAACUAUGACACGCAAAACGCGUGCUCCGUUGAAUGGAGUUUAUCAUG
GGAUCUUCUCGAUCUAACAAAAAAGACAAAUCUGCCACAAAGCUUGAGAGCAUCUUCGGAUGCAGAGGCGGCAGCCCUCGGUGGCUCGAUAGCGCCAACGUUCUCAAAUAUGACACGCAAAACGCGUGCUCCGUUGAAUGGAGUUUAUCAUG
GGAUCUUCUCGAUCUAACAAAAAAGACAAAUCUGCCACAAAGCUUGAGAGCAUCUUCGGAUGCAGAGGCGGCAGCCGUUGGUGGUGCGAUAGCGCCAACGUUCUCAACUAUGACACGCAAAACGCGUGCUCCGUUGAAUGGAGUUUAUCAUG
GGAUCUUCUCGAUCUAACAAAAAAGACAAAUCUGCCACAAAGCUUGAGAGCAUCUUCGGAUGCAGAGGCGGCAGCCGUCGGUGGCGCGAUAGCGCCAAGGUUCUCAACUAUGACACGCAAAACGCGUGCUCCGUUGAAUGGAGUUUAUCAUG
GGAUCUUCUCGAUCUAACAAAAAAGACAAAUCUGCCACAAAGCUUGAGAGCAUCUUCGGAUGCAGAGGCGGCAGCCGUCGGUGGCACGAUAGCGCCAACGUUCUCAACUAUGACACGCAAAACGCGUGCUCCAUUGAAUGGAGUUUAUCAUG
GGAUCUUCUCGAUCUAACAAAAAAGACAAAUCUGCCACAAAGCUUGAGAGCAUCUUCGGAUGCAGAGGCGGCAGCCGUCGGUGGCGCGAUAGCGCCAACGUUCUCAACUAUGACACGCAAAACGCAUGCUCCGUUGAAUGGAGUUUAUCAUG
GGAUCUUCUCGAUCUAACAAAAAAGACAAAUCUGCCACAAAGCUUGAGAGCAUCUUCGGAUGCAGAGGCGGCAGCCUACGGUGGCGCGAUAGCGCCAACGUUCUCAACUAUGACACGCAAGACGCGUGCUCCGUUGAAUGGAGUUUAUUAUG
GGAUCUUCUCGAUCUAACAAAAAAGACAAAUCUGCCACAAAGCUUGAGAGCAUCUUCGGAUGCAGAGGCGGCAGCCUACGGUGGUGCGAUAGCGCCAACGUUCUCAACUAUGACACGCAAAACGCGUGCUCCGUUGAAUGGAGUUUAUCAUG
GGAUCUUCUCGAUCUAACAAAAAAGACAAAUCUGCCACAAAGCUUGAGAGCAUCUUCGGAUGCAGAGGCGGCAGCCUACGGUGGCGCGAUAGGGCCAACGUUCUCAACUAUGACACGCAAAACGCGUGCUCCGUUGAAUGGAGUUUAUCAUG
GGAUCUUCUCGAUCUAACAAAAAAGACAAAUCUGCCACAAAGCUUGAGAGCAUCUUCGGAUGCAGAGGCGGCAGCCUACUGUGGCGCGAUUGCGCCAACGUUCUUAACUAUGACACGCUAAACGCGUGCUCCGUAGAAUUGAGUGUAUCAUG
GGAUCUUCUCGAUCUAACAAAAAAGACAAAUCUGCCACAAAGCUUGAGAGCAUCUUCGGAUGCAGAGGCGGCAGCCUACGGUGUCGCGAUCGCGCCAACGUUCUCAAAUAUGACACGCAACACGCGUGCUCCGUUGAAUGGAGUUUAUCAUG
GGAUCUUCUCGAUCUAACAAAAAAGACAAAUCUGCCACAAAGCUUGAGAGCAUCUUCGGAUGCAGAGGCGGCAGCCUACGGUGGCCCGAUAGCGCCAUUGUUCUGAACUAUGACACGCAAAAAGCGUGCUCCGUUGAAUGGAGUUUAUUAUG
GGAUCUUCUCGAUCUAACAAAAAAGACAAAUCUGCCACAAAGCUUGAGAGCAUCUUCGGAUGCAGAGGCGGCAGCCUACGGUGGCGCGAAAGCGCCAACGUUCUCCACUAUGACACGCAAAACGCGUGCUCCGUUGAAUGGAGUUUAUCAUG
GGAUCUUCUCGAUCUAACAAAAAAGACAAAUCUGCCACAAAGCUUGAGAGCAUCUUCGGAUGCAGAGGCGGCAGCCUGCGGUGGCGCGAUAGCGCCAACGUUCUCGACUAUGACACGCAAAACGCGUGCUCCGUUGAAUGGAGUUUAUCAUG
GGAUCUUCUCGAUCUAACAAAAAAGACAAAUCUGCCACAAAGCUUGAGAGCAUCUUCGGAUGCAGAGGCGGCAGCCUGCGGUGGCGCGAUAGCGCCAACGUUCUCAACUAUGACACGCCAAACGCGUGCUCCGUUGCAUGGAGUUUAUCAUU
GGAUCUUCUCGAUCUAACAAAAAAGACAAAUCUGCCACAAAGCUUGAGAGCAUCUUCGGAUGCAGAGGCGGCAGCCUGCGGUGGCGCGAUAGCGCCAACGUUAUCAACUAUGACACGCAAAACGCGUGCUCCGUUGAAUGGAGUUUACCAUG
GGAUCUUCUCGAUCUAACAAAAAAGACAAAUCUGCCACAAAGCUUGAGAGCAUCUUCGGAUGCAGAGGCGGCAGCCUGCGGUGGCGCGAUAGCGCCAACGUUCUGAACUAUGACACGCAAAACGCGUGCUCCGUUGAAUGGAGUGUAUCAUG
GGAUCUUCUCGAUCUAACAAAAAAGACAAAUCUGCCACAAAGCUUGAGAGCAUCUUCGGAUGCAGAGGCGGCAGCCUGCGGUUGCGCGAUAGCGCCAACGUUCUCAACUAUGACACGCAUAACGCGUGCUCCGUUCGAUGGAGUUUAUCAUG
GGAUCUUCUCGAUCUAACAAAAAAGACAAAUCUGCCACAAAGCUUGAGAGCAUCUUCGGAUGCAGAGGCGGCAGCCUGCGGUGGCGCGAUAGCACCUACGUUCUCAACUAUGACACGCAAAACGCGUGCUCCGUUGAAUGGAGUUUAUCAUG
GGAUCUUCUCGAUCUAACAAAAAAGACAAAUCUGCCACAAAGCUUGAGAGCAUCUUCGGAUGCAGAGGCGGCAGCCUGCGGUGGCGCGAUAGCUCCAACGUUCUUAACUAUGACACGCAAAACGCGUGCUCCGUUGAAUGGAGUUUAUCUUG
GGAUCUUCUCGAUCUAACAAAAAAGACAAAUCUGCCACAAAGCUUGAGAGCAUCUUCGGAUGCAGAGGCGGCAGCCUUAGGUGGCGCGAUGGCGCCAACGUUCUCAACUAUGACACGCAAAACGCGUGCUCCGUUGAAUGGAGUUUAUCAUG
GGAUCUUCUCGAUCUAACAAAAAAGACAAAUCUGCCACAAAGCUUGAGAGCAUCUUCGGAUGCAGAGGCGGCAGCCUUAGGUGGCGAAAUAGCGCCAACGUUCUCAACUAUGACGCGCAUAACGCGUGCUCCGUUGAAUGUAGUUUAUCAUG
GGAUCUUCUCGAUCUAACAAAAAAGACAAAUCUGCCACAAAGCUUGAGAGCAUCUUCGGAUGCAGAGGCGGCAGCCUUAGGUGGCGCGAUAGCGCCAAAAUUCUCAACUAUGGCACGCAAAACGCGUGCUCCGUUGAAUGGAGUUUAUCAUG
GGAUCUUCUCGAUCUAACAAAAAAGACAAAUCUGCCACAAAGCUUGAGAGCAUCUUCGGAUGCAGAGGCGGCAGCCUUAGGUGGCGCGAUAGCGCCAACGUUCUAAACUAUGACACGCAAAACGCGUGCUCCGUUGAAUGGAGUUUAUCAUG
GGAUCUUCUCGAUCUAACAAAAAAGACAAAUCUGCCACAAAGCUUGAGAGCAUCUUCGGAUGCAGAGGCGGCAGCCUUAGGUGGCGCGAUAGCGCCAACGUUCUCAACUAUGAAACGCAAAACGCGUGCUCCGAAGAAUGGAGUUUAUCAUG
GGAUCUUCUCGAUCUAACAAAAAAGACAAAUCUGCCACAAAGCUUGAGAGCAUCUUCGGAUGCAGAGGCGGCAGCCUUAGGUGCCGCGAUAGCGCCAACGUUCUCAACUAUGACACGCAAAACGCGUGCUCCGUUGAAUGGAGUUUAUCAUG
